Assay results: the supplement of paper PMC12217912
The other results are listed elsewhere or left out. The full chains were built here from the parent and the listed change. Values near 0.05 are background.

B1: TEV protease; numbered along this chain (parent)
chain: MGESLFKGPRDYNPISSSICHLTNESDGHTTSLYGIGFGPFIITNKHLFRRNNGTLVVQSLHGVFKVKDTTTLQQHLVDGRDMIIIRMPKDFPPFPQKLKFREPQREERICLVTTNFQTKSMSSMVSDTSCTFPSGDGIFWKHWIQTKDGQCGSPLVSTRDGFIVGIHSASNFTNTNNYFTSVPKNFMELLTNQEAQQWVSGWRLNADSVLWGGHKVFMVKPEEPFQPVKEATQL

Variants of: B1
Experiment: raw area under fraction-flipped curve 0-4 h after induction (AUC4h, not background-subtracted), DNA-recorder readout of cleavage of the substrate (dimensionless); higher = more cleavage of the substrate by the protease variant
Conditions: temperature: 34 °C; time window: 0-4 h after rhamnose induction
Description: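 In vivo DNA recorder in E. coli TOP10(DE3) ΔrhaA at 34 °C. Each TEVp single-site mutant (parent TEVp 0) is paired with a single-site variant of the 7-mer TEVs (canonical ENLYFQ|S). The substrate sits between flexible linkers in a Bxb1-sfGFP-TEVs-SsrA fusion, so cleavage stabilises Bxb1 and speeds flipping of a recombination array, read by NGS. The value is the raw area under the fraction-flipped curve over 0-4 h after rhamnose induction (AUC4h), with ≥20 reads per time point. It is not background-subtracted; inactive controls average about 0.047.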
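Note: Bxb1 expression induced with 0.2% (w/v) L-rhamnose at OD600 near 0.5, cultures sampled hourly, flipped fraction per protease–substrate barcode pair counted by paired-end Illumina sequencing.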

In the case of D82E, the “area with substrate ENCYFQS” value is reported as 0.0634, the “area with substrate ENDYFQS” value is reported as 0.0671 and the “area with substrate ENEYFQS” value is reported as 0.0693. For the same variant, the “area with substrate ENFYFQS” value was 0.0755, the “area with substrate ENHYFQS” value was 0.0607 and the “area with substrate ENIYFQS” value was 0.0815. The “area with substrate ENPYFQS” value was 0.0682, the “area with substrate ENRYFQS” value was 0.0637 and the “area with substrate ENSYFQS” value was 0.0598. For the same variant, the “area with substrate ENTYFQS” value was 0.0981, the “area with substrate ENVYFQS” value was 0.0512 and the “area with substrate ENYYFQS” value was 0.0703.

With N193R the “area with substrate ENCYFQS” value was 0.0442, the “area with substrate ENEYFQS” value was 0.0578 and the “area with substrate ENGYFQS” value was 0.0521. The “area with substrate ENKYFQS” value was 0.061, the “area with substrate ENRYFQS” value was 0.059 and the “area with substrate ENSYFQS” value was 0.0615.

In the case of I145H, the “area with substrate ENCYFQS” value is reported as 0.0703, the “area with substrate ENDYFQS” value is reported as 0.0583 and the “area with substrate ENEYFQS” value is reported as 0.0565. For the same variant, the “area with substrate ENPYFQS” value was 0.0581, the “area with substrate ENQYFQS” value was 0.0609 and the “area with substrate ENRYFQS” value was 0.0474. The “area with substrate ENSYFQS” value was 0.0712 and the “area with substrate ENTYFQS” value was 0.0585.

In the case of H62C, the “area with substrate ENCYFQS” value is reported as 0.0666, the “area with substrate ENDYFQS” value is reported as 0.0609 and the “area with substrate ENEYFQS” value is reported as 0.0593. The “area with substrate ENHYFQS” value was 0.0674, the “area with substrate ENIYFQS” value was 0.087 and the “area with substrate ENKYFQS” value was 0.0755. For the same variant, the “area with substrate ENNYFQS” value was 0.0443, the “area with substrate ENQYFQS” value was 0.0559 and the “area with substrate ENSYFQS” value was 0.0587. For the same variant, the “area with substrate ENTYFQS” value was 0.0567 and the “area with substrate ENVYFQS” value was 0.0704.

For Q234M, the “area with substrate ENAYFQS” value was 0.0676, the “area with substrate ENCYFQS” value was 0.0623 and the “area with substrate ENDYFQS” value was 0.0867. For the same variant, the “area with substrate ENGYFQS” value was 0.0592, the “area with substrate ENQYFQS” value was 0.0588 and the “area with substrate ENSYFQS” value was 0.063. The “area with substrate ENTYFQS” value was 0.0602 and the “area with substrate ENVYFQS” value was 0.0632.

With Q234D the “area with substrate ENAYFQS” value was 0.0564, the “area with substrate ENCYFQS” value was 0.0659 and the “area with substrate ENDYFQS” value was 0.0608. The “area with substrate ENEYFQS” value was 0.0382, the “area with substrate ENGYFQS” value was 0.0551 and the “area with substrate ENHYFQS” value was 0.0481. For the same variant, the “area with substrate ENMYFQS” value was 0.0877, the “area with substrate ENRYFQS” value was 0.0546 and the “area with substrate ENSYFQS” value was 0.0678. The “area with substrate ENTYFQS” value was 0.0733 and the “area with substrate ENVYFQS” value was 0.0651.

For Q234C, the “area with substrate ENAYFQS” value was 0.0664, the “area with substrate ENCYFQS” value was 0.0433 and the “area with substrate ENDYFQS” value was 0.0649. The “area with substrate ENFYFQS” value was 0.0608, the “area with substrate ENHYFQS” value was 0.0594 and the “area with substrate ENNYFQS” value was 0.0621. The “area with substrate ENPYFQS” value was 0.0562, the “area with substrate ENQYFQS” value was 0.0647 and the “area with substrate ENSYFQS” value was 0.0682. For the same variant, the “area with substrate ENTYFQS” value was 0.0622, the “area with substrate ENVYFQS” value was 0.0625 and the “area with substrate ENWYFQS” value was 0.0554. For the same variant, the “area with substrate ENYYFQS” value was 0.0648.

For W199M, the “area with substrate ENCYFQS” value was 0.0791, the “area with substrate ENDYFQS” value was 0.058 and the “area with substrate ENEYFQS” value was 0.0602. For the same variant, the “area with substrate ENFYFQS” value was 0.0605, the “area with substrate ENGYFQS” value was 0.0559 and the “area with substrate ENIYFQS” value was 0.0644. For the same variant, the “area with substrate ENKYFQS” value was 0.0389, the “area with substrate ENMYFQS” value was 0.0922 and the “area with substrate ENPYFQS” value was 0.0626. The “area with substrate ENQYFQS” value was 0.0611 and the “area with substrate ENVYFQS” value was 0.0535.

With Q151F the “area with substrate ENCYFQS” value was 0.0619, the “area with substrate ENEYFQS” value was 0.0622 and the “area with substrate ENGYFQS” value was 0.0554. The “area with substrate ENKYFQS” value was 0.0578, the “area with substrate ENPYFQS” value was 0.0609 and the “area with substrate ENSYFQS” value was 0.0311. The “area with substrate ENYYFQS” value was 0.0453.

In the case of T159A, the “area with substrate ENCYFQS” value is reported as 0.0644, the “area with substrate ENEYFQS” value is reported as 0.0648 and the “area with substrate ENGYFQS” value is reported as 0.0683. For the same variant, the “area with substrate ENPYFQS” value was 0.0411, the “area with substrate ENRYFQS” value was 0.0457 and the “area with substrate ENSYFQS” value was 0.0544. The “area with substrate ENWYFQS” value was 0.0462 and the “area with substrate ENYYFQS” value was 0.0394.

With F6K the “area with substrate ENCYFQS” value was 0.078, the “area with substrate ENDYFQS” value was 0.0557 and the “area with substrate ENEYFQS” value was 0.08. The “area with substrate ENHYFQS” value was 0.0564, the “area with substrate ENIYFQS” value was 0.118 and the “area with substrate ENRYFQS” value was 0.0568.

With I42P the “area with substrate ENCYFQS” value was 0.0514, the “area with substrate ENDYFQS” value was 0.0276 and the “area with substrate ENEYFQS” value was 0.047. For the same variant, the “area with substrate ENFYFQS” value was 0.0538, the “area with substrate ENGYFQS” value was 0.0412 and the “area with substrate ENHYFQS” value was 0.053. The “area with substrate ENIYFQS” value was 0.0738, the “area with substrate ENQYFQS” value was 0.0479 and the “area with substrate ENSYFQS” value was 0.0435. For the same variant, the “area with substrate ENTYFQS” value was 0.0434, the “area with substrate ENVYFQS” value was 0.0368 and the “area with substrate ENYYFQS” value was 0.0489.

In the case of S182L, the “area with substrate ENCYFQS” value is reported as 0.0482, the “area with substrate ENDYFQS” value is reported as 0.0628 and the “area with substrate ENPYFQS” value is reported as 0.0534. For the same variant, the “area with substrate ENQYFQS” value was 0.0568, the “area with substrate ENTYFQS” value was 0.0617 and the “area with substrate ENVYFQS” value was 0.0628. The “area with substrate ENYYFQS” value was 0.068.

In the case of N172Y, the “area with substrate ENCYFQS” value is reported as 0.0635, the “area with substrate ENEYFQS” value is reported as 0.0592 and the “area with substrate ENGYFQS” value is reported as 0.0492. For the same variant, the “area with substrate ENNYFQS” value was 0.0707, the “area with substrate ENQYFQS” value was 0.0675 and the “area with substrate ENRYFQS” value was 0.0589. For the same variant, the “area with substrate ENVYFQS” value was 0.0606.

In the case of Q97F, the “area with substrate ENCYFQS” value is reported as 0.0688, the “area with substrate ENEYFQS” value is reported as 0.0537 and the “area with substrate ENFYFQS” value is reported as 0.0602. For the same variant, the “area with substrate ENQYFQS” value was 0.0732 and the “area with substrate ENVYFQS” value was 0.0796.

In the case of K7I, the “area with substrate ENCYFQS” value is reported as 0.0689, the “area with substrate ENEYFQS” value is reported as 0.0595 and the “area with substrate ENFYFQS” value is reported as 0.0697. For the same variant, the “area with substrate ENKYFQS” value was 0.0486, the “area with substrate ENMYFQS” value was 0.073 and the “area with substrate ENNYFQS” value was 0.0767. The “area with substrate ENPYFQS” value was 0.0731, the “area with substrate ENTYFQS” value was 0.0607 and the “area with substrate ENVYFQS” value was 0.0613. For the same variant, the “area with substrate ENYYFQS” value was 0.0795.

In the case of T71Y, the “area with substrate ENCYFQS” value is reported as 0.0804, the “area with substrate ENEYFQS” value is reported as 0.0622 and the “area with substrate ENHYFQS” value is reported as 0.0536. The “area with substrate ENIYFQS” value was 0.0968, the “area with substrate ENMYFQS” value was 0.078 and the “area with substrate ENQYFQS” value was 0.0604. The “area with substrate ENSYFQS” value was 0.0479, the “area with substrate ENTYFQS” value was 0.0644 and the “area with substrate ENYYFQS” value was 0.0605.

With T71M the “area with substrate ENCYFQS” value was 0.0452, the “area with substrate ENDYFQS” value was 0.0506 and the “area with substrate ENEYFQS” value was 0.0665. For the same variant, the “area with substrate ENFYFQS” value was 0.0513, the “area with substrate ENHYFQS” value was 0.0608 and the “area with substrate ENKYFQS” value was 0.0611. The “area with substrate ENNYFQS” value was 0.0609, the “area with substrate ENQYFQS” value was 0.0727 and the “area with substrate ENYYFQS” value was 0.0381.

With T132H the “area with substrate ENCYFQS” value was 0.0609, the “area with substrate ENDYFQS” value was 0.0644 and the “area with substrate ENFYFQS” value was 0.0699. The “area with substrate ENKYFQS” value was 0.0555, the “area with substrate ENPYFQS” value was 0.0489 and the “area with substrate ENQYFQS” value was 0.0538. For the same variant, the “area with substrate ENRYFQS” value was 0.063, the “area with substrate ENTYFQS” value was 0.0566 and the “area with substrate ENVYFQS” value was 0.0609.
